Where “and” joins values, the source holds several entries; their conditions need not be identical. Equal values may be shown once. In all, about 420,000 compounds went through this assay and about 50,000 (12%) were called active. This list was built around the results that the source calls inconclusive (neither active nor inactive); the mix of calls is not that of the screen. The call rests on the fitted dose curve; in most records, active means well fitted inhibition curve with a large enough effect; inconclusive means small, poorly fitted or top-dose-only effect; inactive means flat fitted curve, though single readings scatter. No potency is given beside an inconclusive call; the fits are too rough.
Assay: qHTS for Inhibitors of human tyrosyl-DNA phosphodiesterase 1 (TDP1): qHTS in cells in presence of CPT; further: nearly all actives have a fitted effect of over 55% in size
Settings: chicken DT40 Tdp1-/-;hTDP1 cells + 20 nM CPT, ATP luminescence, 48 h; activity change, negative = growth inhibition: at 46.2 µM (top of the series)
Summary of the method: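 Cell growth measured by CellTiter-Glo luminescence after a minimum 48 h, 37 C compound exposure with 20 nM CPT in Tdp1-knockout DT40 cells stably expressing hTDP1, seeded 400/well; qHTS titration format.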
On the % scale 0 is the no-effect control and ±100 the full control effect; potency means the concentration at half of the fitted maximal effect; tags describe the fitted curve by direction and shape.

SMILES | Potency | activity change, negative = growth inhibition
CCOC(=O)c1sc(NC(=O)Nc2cccc(Cl)c2)cc1C | active: 10.3 µM | –
CNCCCC1Sc2ccccc2Oc2ccccc21 (stereo unspecified) | inconclusive [inhibitor, single point] | –
O=c1cc(-c2ccccc2Cl)oc2c(NS(=O)(=O)c3ccccc3OC(F)(F)F)ccc(O)c12 | active: 20.6 µM | –
COc1ccc(N(CCC#N)C(=O)/C(C#N)=C/c2cccs2)cc1 | inconclusive [inhibitor, single point] | –
COc1ccc(CN(CC(=O)NCC2CCCO2)C(=O)CCC(=O)Nc2nccs2)cc1 (stereo unspecified) | – | inactive: -10.1%
COc1ccccc1-c1ccc(/C=N/O)o1 | – | inactive: -2.59%
COc1cc(NC(=O)Nc2nnc(N3CCCCC3)s2)cc(OC)c1 | inconclusive [inhibitor, single point] | –
CCOC(=O)C1(Cc2ccc(Cl)cc2)CCN(C(=O)CCc2ccncc2)CC1 | – | inactive: -18.1%
COC(=O)c1ccccc1NC(=O)Cn1nc(C)c2nn(-c3ccc(Cl)cc3)c(C)c2c1=O | active: 20.6 µM | –
CCCn1c2ccccc2c2cnn(CC(=O)Nc3ccccc3OC)c(=O)c21 | active: 23.1 µM | –
O=C1C2C3C=CC(CC3)C2C(=O)N1c1ccc(Cl)cc1 (stereo unspecified) | – | inactive: -7.53%
COc1ccc(CC(=O)NCc2ccccc2)cc1 | active: 2.59 µM | –
CCCCc1ccc(NC(=O)CSc2nc(=O)n(CCN(CC)CC)c3c2CCC3)cc1 | inconclusive [inhibitor, single point] | –
COc1ccc(C(O)P(=O)(OCCC(C)C)c2ccc(N(C)C)cc2)cc1 (stereo unspecified) | – | inactive: -28.7%
CCc1ccccc1NC(=O)Cn1nc(-c2cc(C)ccc2C)c2c(c1=O)CCCC2 | inconclusive [inhibitor, single point] | –
COc1cccc(-c2nc(CS(=O)(=O)CC(=O)Nc3cc(OC)ccc3OC)c(C)o2)c1 | inconclusive [inhibitor, single point] | –
Cn1c(=O)c2c(ncn2CC(=O)OCCCC(=O)c2ccc(Br)cc2)n(C)c1=O | active: 18.4 µM | –
O=c1c2[nH]c3ccccc3c2nc(SCc2ccccc2F)n1-c1ccc(F)cc1 | inconclusive [inhibitor, single point] | –
C=CCOC(=O)C1=C[C@@H](c2ccc(Br)cc2)[C@H](CCCO)[C@@H](OCC)O1 | inconclusive [inhibitor, single point] | –
COc1ccc(Cc2cc(NCc3ccccc3)c3ncn(C(C)C)c3c2)cc1 | inconclusive [inhibitor, partial curve, poor fit] | –
CCN1CCN(Cc2c3ccccc3cc3ccccc23)CC1 | inconclusive [inhibitor, single point] | –
CC1CCc2nc3ccc(S(=O)(=O)N4CCC(C(=O)NCc5ccccc5Cl)CC4)cc3c(C(=O)O)c2C1 (stereo unspecified) | inactive | –
Cc1nn(-c2ccccc2)c2c1N(CCCC(=O)NCc1ccc(OC(C)C)cc1)C(=O)CS2 | active: 14.6 µM | –

SMILES | Potency | activity change, negative = growth inhibition
CC(C)(C)c1ccc(-n2ncc3c2CCCC3NC(=O)CCN2CCCO2)cc1 (stereo unspecified) | active: 23.1 µM | –
CN(C)c1nc(SCc2ccccc2Cl)nc2c1CCCC2 | – | inactive: -27.7%
Cc1ccc2c(CC(=O)Nc3ccc(S(=O)(=O)N4CCC(C)CC4)cc3)coc2c1 | inconclusive [inhibitor, single point] | –
O=C(CCCC(=O)OCC(Cl)=C(Cl)Cl)Nc1cccc2ccccc12 | inconclusive [inhibitor, single point] | –
C=CCn1c(O)c(N=Nc2ccccc2[N+](=O)[O-])c2ccccc21 | inconclusive [inhibitor, single point] | –
Cc1cc(CNCc2cn(C)nc2-c2ccc(Oc3ccccc3)cc2)on1 | inconclusive [inhibitor, single point] | –
Cc1ccc(CNC(=O)c2ccc3oc(=O)n(Cc4ccccc4)c3c2)cc1 | inconclusive [inhibitor, single point] | –
CC(=O)Nc1ccc(N2C(C(C)=O)=NN(c3ccccc3)C2c2cccs2)cc1 (stereo unspecified) | inconclusive [inhibitor, single point] | –
COc1cc(OC)cc(-c2cc3nc4c(c(N5CCN(c6ncccn6)CC5)n3n2)CCCC4)c1 | inconclusive [inhibitor, single point] | –
COc1ccc2[nH]c(C(O)C(O)c3nc4c(OC)c(OC)ccc4[nH]3)nc2c1OC (stereo unspecified) | active: 1 µM | –
COc1ccc(C)cc1N=Nc1ccc(O)c2ncccc12 | active: 3.26 µM | –
NC(=O)c1nsc(C(=O)N(CC(=O)NCc2ccco2)c2ccccc2F)c1N | inconclusive [inhibitor, single point] | –
O=C(NCCCN1CCOCC1)c1ccc(Sc2ccccc2Cl)c([N+](=O)[O-])c1 | inconclusive [inhibitor, single point] | –
Cc1[nH]n(-c2cccc(Cl)c2)c(=O)c1/C=N/n1c(C)nc2ccccc2c1=O | inconclusive [inhibitor, single point] | –
Cc1ccccc1OCC(=O)Nc1ccc(OCc2cc(=O)n3ccccc3n2)cc1 | – | inactive: 24.8%
COc1ccc(CNC(=O)COC(=O)C2(C)CC2(Cl)Cl)cc1 (stereo unspecified) | – | inactive: -3.99%
CCNC(=S)N1CCN(c2cccc(C(F)(F)F)c2)CC1 | active: 14.6 µM | –
Cc1cc(C)cc(NC(=O)Cn2c(-c3ccccc3Cl)nc3ccccc32)c1 | inconclusive [inhibitor, partial curve] | –
CC(C)(C)[C@@H]1CCC(=O)N(CC[C@H](Sc2ccc(Br)cc2)c2ccccc2)CC1 | active: 14.1 µM and active: 18.4 µM | –
COc1cccc(NC(=O)CN(C)C(=O)c2cn(-c3ccccc3)nc2-c2cccnc2)c1 | inconclusive [inhibitor, single point] | –
O=C(C1CCCCC1)N1CCCC(c2nc(-c3ccc(F)cc3)no2)C1 (stereo unspecified) | – | inactive: -29.4%
Cc1ccc(/C=C/C(=O)N2CCc3ccccc32)o1 | active: 6.51 µM | –
N#Cc1c(NC(=O)CSc2nnnn2C2CCCC2)sc2c1CCCC2 | inconclusive [inhibitor, single point] | –
